# In the supplement of paper PMC8728848:
# The list shows a part of the results.
# B1: ZG16p (Homo sapiens), O60844 (protein)
# chain: ARSSSYSGEYGGGGGKRFSHSGNQLDGPITALRVRVNTYYIVGLQVRYGKVWSDYVGGRNGDLEEIFLHPGESVIQVSGKYKWYLKKLLFVTDKGRYLSFGKDSGTSFNAVPLHPNTVLRFISGRSGSLINAIGLHWDVYPSSCSRC
# What was measured:
# Test in all cases: glycan array binding signal (z-score within array); higher = stronger binding
# Conditions in all cases: glycan notation: IUPAC condensed, linker removed; mutation: D151N
# [1] = target: HexA(a1-3)GalNAc4S(b1-4)GlcA(b1-3)GalNAc4S(b1-4)GlcA(b1-3)GalNAc4S(b1-4)GlcA(b1-3)GalNAc4S(b1-4)GlcA(b1-3)GalNAc4S(b1-4)GlcA(b1-3)GalNAc4S(b1-4)GlcA(b1-3)GalNAc4S(b1-4)GlcA(b1-3)GalNAc4S
# In short: (§1)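 Glycan array binding is given as a within-array Z-score, which can be read as non-binding when negative. The arrays, 3228 of them, came from the Consortium for Functional Glycomics database and were retained only where the protein sequence was available. Z-scores were averaged across arrays of the same protein sequence at different concentrations or buffers and across linkers.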
# [2] = target: HexA(a1-3)GalNAc4S(b1-4)IdoA(a1-3)GalNAc4S(b1-4)IdoA(a1-3)GalNAc4S(b1-4)IdoA(a1-3)GalNAc4S(b1-4)IdoA(a1-3)GalNAc4S(b1-4)IdoA(a1-3)GalNAc4S(b1-4)IdoA(a1-3)GalNAc4S(b1-4)IdoA(a1-3)GalNAc4S
# In short: as §1
# [3] = target: HexA(a1-3)GalNAc6S(b1-4)GlcA(b1-3)GalNAc6S(b1-4)GlcA(b1-3)GalNAc6S(b1-4)GlcA(b1-3)GalNAc6S(b1-4)GlcA(b1-3)GalNAc6S(b1-4)GlcA(b1-3)GalNAc6S(b1-4)GlcA(b1-3)GalNAc6S(b1-4)GlcA(b1-3)GalNAc6S
# In short: as §1
# [4] = target: HexA2S(a1-4)GlcNS6S(a1-4)IdoA2S(a1-4)GlcNS6S(a1-4)IdoA2S(a1-4)GlcNS6S(a1-4)IdoA2S(a1-4)GlcNS6S(a1-4)IdoA2S(a1-4)GlcNS6S(a1-4)IdoA2S(a1-4)GlcNS6S(a1-4)IdoA2S(a1-4)GlcNS6S(a1-4)IdoA2S(a1-4)GlcNS6S(a1-4)IdoA2S
# In short: as §1
# Man(a1-2)Man = target: Man(a1-2)Man
# In short: as §1
# [5] = target: Man(a1-2)Man(a1-2)Man(a1-3)[Man(a1-2)Man(a1-3)[Man(a1-2)Man(a1-6)]Man(a1-6)]Man(b1-4)GlcNAc(b1-4)GlcNAc
# In short: as §1
# [6] = target: Man(a1-2)Man(a1-2)Man(a1-3)[Man(a1-2)Man(a1-6)[Man(a1-3)]Man(a1-6)]Man(b1-4)GlcNAc(b1-4)GlcNAc
# In short: as §1
# [7] = target: Man(a1-2)Man(a1-2)Man(a1-3)[Man(a1-3)[Man(a1-6)]Man(a1-6)]Man(b1-4)GlcNAc(b1-4)GlcNAc
# In short: as §1
# [8] = target: Man(a1-2)Man(a1-3)[Man(a1-2)Man(a1-6)[Man(a1-3)]Man(a1-6)]Man(b1-4)GlcNAc(b1-4)GlcNAc
# In short: as §1
# [9] = target: Man(a1-2)Man(a1-3)[Man(a1-3)[Man(a1-6)]Man(a1-6)]Man(b1-4)GlcNAc(b1-4)GlcNAc
# In short: as §1
# Man(a1-3)Man = target: Man(a1-3)Man
# In short: as §1
# [10] = target: Man(a1-3)Man(a1-6)[Man(a1-3)]Man(b1-4)GlcNAc(b1-4)GlcNAc
# In short: as §1
# Man(a1-3)Man(b1-4)GlcNAc = target: Man(a1-3)Man(b1-4)GlcNAc
# In short: as §1
# Man(a1-3)[Man(a1-6)]Man = target: Man(a1-3)[Man(a1-6)]Man
# In short: as §1
# [11] = target: Man(a1-3)[Man(a1-6)]Man(a1-6)Man(b1-4)GlcNAc(b1-4)GlcNAc
# In short: as §1
# [12] = target: Man(a1-3)[Man(a1-6)]Man(a1-6)[Man(a1-3)]Man
# In short: as §1
# [13] = target: Man(a1-3)[Man(a1-6)]Man(a1-6)[Man(a1-3)]Man(b1-4)GlcNAc(b1-4)GlcNAc
# In short: as §1
# [14] = target: Man(a1-3)[Man(a1-6)]Man(b1-4)GlcNAc(b1-4)GlcNAc
# In short: as §1
# [15] = target: Man(a1-3)[Man(a1-6)]Man(b1-4)GlcNAc(b1-4)[Fuc(a1-6)]GlcNAc
# In short: as §1
# Man(a1-6)Man = target: Man(a1-6)Man
# In short: as §1
# [16] = target: Man(a1-6)Man(b1-4)GlcNAc(b1-4)GlcNAc
# In short: as §1
# Man(b1-4)GlcNAc = target: Man(b1-4)GlcNAc
# In short: as §1
# [17] = target: Neu5Ac(a2-3)Gal(b1-4)GlcNAc(b1-2)Man(a1-3)[Neu5Ac(a2-3)Gal(b1-4)GlcNAc(b1-2)Man(a1-6)]Man(b1-4)GlcNAc(b1-4)[Fuc(a1-6)]GlcNAc
# In short: as §1
# [18] = target: Neu5Ac(a2-6)Gal(b1-4)GlcNAc(b1-2)Man(a1-3)[Neu5Ac(a2-6)Gal(b1-4)GlcNAc(b1-2)Man(a1-6)]Man(b1-4)GlcNAc(b1-4)GlcNAc
# In short: as §1
# [19] = target: Xyl(b1-2)[Man(a1-3)][Man(a1-6)]Man(b1-4)GlcNAc(b1-4)GlcNAc
# In short: as §1
# [20] = target: Xyl(b1-2)[Man(a1-3)][Man(a1-6)]Man(b1-4)GlcNAc(b1-4)[Fuc(a1-3)]GlcNAc
# In short: as §1
binder,measurement,setting,value
B1,glycan array binding signal (z-score),[1],5.03
same,glycan array binding signal (z-score),[2],-0.565
same,glycan array binding signal (z-score),[3],-0.218
same,glycan array binding signal (z-score),[4],0.768
same,glycan array binding signal (z-score),Man(a1-2)Man,-0.565
same,glycan array binding signal (z-score),[5],-0.165
same,glycan array binding signal (z-score),[6],0.128
same,glycan array binding signal (z-score),[7],-0.403
same,glycan array binding signal (z-score),[8],-0.565
same,glycan array binding signal (z-score),[9],-0.565
same,glycan array binding signal (z-score),Man(a1-3)Man,-0.514
same,glycan array binding signal (z-score),[10],-0.482
same,glycan array binding signal (z-score),Man(a1-3)Man(b1-4)GlcNAc,-0.565
same,glycan array binding signal (z-score),Man(a1-3)[Man(a1-6)]Man,-0.565
same,glycan array binding signal (z-score),[11],-0.565
same,glycan array binding signal (z-score),[12],-0.333
same,glycan array binding signal (z-score),[13],-0.425
same,glycan array binding signal (z-score),[14],-0.522
same,glycan array binding signal (z-score),[15],-0.565
same,glycan array binding signal (z-score),Man(a1-6)Man,-0.565
same,glycan array binding signal (z-score),[16],-0.565
same,glycan array binding signal (z-score),Man(b1-4)GlcNAc,-0.565
same,glycan array binding signal (z-score),[17],-0.565
same,glycan array binding signal (z-score),[18],-0.565
same,glycan array binding signal (z-score),[19],-0.236
same,glycan array binding signal (z-score),[20],-0.498
